Data: patent US20070037883A1, “Therapeutic compositions” (priority 2003, published 2007)

Target: T1, Nox4-containing NADPH oxidase in cultured mouse VSMCs (Mus musculus, UniProt Q9JHI8)
T1 sequence (Q9JHI8 1-578): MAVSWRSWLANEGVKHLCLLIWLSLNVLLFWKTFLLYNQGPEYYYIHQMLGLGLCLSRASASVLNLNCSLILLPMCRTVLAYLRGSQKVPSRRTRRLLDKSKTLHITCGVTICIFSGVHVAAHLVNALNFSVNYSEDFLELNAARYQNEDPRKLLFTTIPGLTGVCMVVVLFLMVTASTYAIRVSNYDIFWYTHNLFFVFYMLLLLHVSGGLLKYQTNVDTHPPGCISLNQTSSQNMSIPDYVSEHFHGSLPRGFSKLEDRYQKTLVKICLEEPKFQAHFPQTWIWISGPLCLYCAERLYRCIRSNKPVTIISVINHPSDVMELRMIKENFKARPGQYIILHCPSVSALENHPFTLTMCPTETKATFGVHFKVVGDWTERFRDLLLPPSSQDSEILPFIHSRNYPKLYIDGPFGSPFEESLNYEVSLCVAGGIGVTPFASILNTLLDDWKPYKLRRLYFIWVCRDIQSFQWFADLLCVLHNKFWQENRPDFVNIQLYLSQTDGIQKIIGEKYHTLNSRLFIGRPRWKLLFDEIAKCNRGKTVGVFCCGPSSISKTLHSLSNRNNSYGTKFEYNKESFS
T1 sequence (Q61462 1-192 partner): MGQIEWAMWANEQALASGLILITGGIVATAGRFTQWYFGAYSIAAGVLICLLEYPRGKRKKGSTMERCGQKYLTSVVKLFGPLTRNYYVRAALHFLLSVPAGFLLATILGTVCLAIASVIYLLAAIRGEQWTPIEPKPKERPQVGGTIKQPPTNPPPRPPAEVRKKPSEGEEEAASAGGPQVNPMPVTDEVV
Experiment: NADPH-driven superoxide production in cultured mouse VSMCs, lucigenin-enhanced chemiluminescence
Format: cell-based
Settings: for reduction in NADPH-driven superoxide production, second series vs mismatch and scrambled: 500 nmol/L oligonucleotide, 24 h, 100 μmol/L NADPH 45 mins, FIG. 8

Molecule: 1-amino-4[[4[[4-chloro-6-[[n-sulfophenyl]amino]-1,3,5-triazin-2-yl]amino]-3-sulfophenyl]amino]-9,10-dihydro-9,10-dioxo-2-anthracene-sulfonic acid wherein n is 3 or 4 [Reactive blue-2]
inhibition of the Nox4-containing NADPH oxidase in cultured mouse VSMCs (in words) (FIG. 2A, FIG. 5): powerful inhibitors

Molecule: c1ccc2c(c1)[I+]c1ccccc1-2 [DPI, diphenyleneiodonium]
inhibition of the Nox4-containing NADPH oxidase in cultured mouse VSMCs (in words) (FIG. 2A, FIG. 5): powerful inhibitor | IC50 (mouse VSMCs, FIG. 5, read-out: IC50, concentrations at which DPI inhibits NADPH oxidase): 1 nM

Molecule: +13/+33 mismatch: mismatch control oligonucleotide TAGGCCAGCAAGCTCCTACA [SEQ ID NO:18], differs in three base positions (chemistry not given here)
reduction in NADPH-driven superoxide production, second series vs mismatch and scrambled: neither the mismatch nor the scrambled sequence had any effect

Molecule: +13/+33 scrambled: scrambled control oligonucleotide CGTCACGCTCAGCTCACCGT [SEQ ID NO:19], same base composition in random order (chemistry not given here)
reduction in NADPH-driven superoxide production, second series vs mismatch and scrambled: neither the mismatch nor the scrambled sequence had any effect

More lines, now with the values ahead:

inhibition of the Nox4-containing NADPH oxidase in cultured mouse VSMCs (in words) (FIG. 2A, FIG. 5): powerful inhibitors
Molecule: Cc1nc(N=Nc2ccc(S(=O)(=O)O)cc2S(=O)(=O)O)c(COP(=O)(O)O)c(C=O)c1O [PPADS, 4-[[-formyl-5-hydroxy-6-methyl-3-[(phos-phonooxy)methyl]-2-pyridinyl]azo]-1,3-benzenedisulfonic acid]

effect on NADPH-driven superoxide production after 45 mins (45 mins, 100 μM NADPH, FIG. 5C): no effect | inhibition of NADPH-driven superoxide production after 24 h (24 h incubation, 100 μM NADPH, FIG. 5C): ~50% | inhibition of the Nox4-containing NADPH oxidase in cultured mouse VSMCs (in words) (FIG. 2A, FIG. 5): inhibits
Molecule: COc1cc(C(C)=O)ccc1O [apocynin]

inhibition of the Nox4-containing NADPH oxidase in cultured mouse VSMCs (in words) (FIG. 2A, FIG. 5): powerful inhibitors | NADPH-driven superoxide production in VSMCs (suramin 100 μM for 45 minutes, FIG. 2A): abolish | inhibition of 100 μM NADPH-driven activity of Nox4-containing NADPH-oxidase in VSMC (suramin ≦100 μM, 100 μM NADPH, FIG. 2a): fully inhibits
Molecule: Cc1ccc(C(=O)Nc2ccc(S(=O)(=O)O)c3cc(S(=O)(=O)O)cc(S(=O)(=O)O)c23)cc1NC(=O)c1cccc(NC(=O)Nc2cccc(C(=O)Nc3cc(C(=O)Nc4ccc(S(=O)(=O)O)c5cc(S(=O)(=O)O)cc(S(=O)(=O)O)c45)ccc3C)c2)c1 [suramin]

EC50 (45 mins incubation with NADPH, FIG. 5A, read-out: EC50, concentration-dependent increase in superoxide production): 5000 ± 600 nM
Molecule: NADPH

Each block holds one molecule with its values, some of them ahead of it.
